The supplement of paper PMC4967469
Lines with a small IC50 respond at low doses; a limit (>, <) means that the fit lies beyond the doses tested. The AUC spans the tested range (256-fold, ending at the top dose) of the same fit: 1 means no effect, lower means more sensitive. For some assays here: A top dose marked as inferred comes from the curve model; the source does not state it.

How the values were obtained:
Experiment in all cases: Viability of human cancer cell lines after 72 h of drug (GDSC screen)
BMS-345541 = compound: Cc1ccc2nc(NCCN)c3ncc(C)n3c2c1 [BMS-345541]; conditions: top dose 16 µM
Description: (§1)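 Human cancer cell lines in 384-well plates, medium with 10% serum, drug for 72 h over a 256-fold dose range (nine 2-fold or five 4-fold steps up to the top dose). Adherent lines were fixed and stained with the nucleic acid dye Syto60, suspension lines read with resazurin; signal relative to control wells, capped at 0 and 100%. One two-parameter sigmoid per drug and line, fitted in a mixed model over all curves with the slope shared within a line.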

GSK-650394 = compound: O=C(O)c1ccc(-c2c[nH]c3ncc(-c4ccccc4)cc23)cc1C1CCCC1 [GSK-650394]; conditions: top dose 16 µM; top dose inferred
Description: as §1

NPK76-II-72-1 = compound: COc1cc(C(=O)NC2CCN(C)CC2)ccc1Nc1ncc2c(n1)N(C1CCCC1)C(C)CC(=O)N2C [NPK76-II-72-1]; conditions: top dose 10.24 µM; top dose inferred
Description: as §1

Bexarotene = compound: C=C(c1ccc(C(=O)O)cc1)c1cc2c(cc1C)C(C)(C)CCC2(C)C [Bexarotene]; conditions: top dose 8 µM
Description: as §1

Etoposide = compound: COc1cc([C@@H]2c3cc4c(cc3[C@@H](O[C@@H]3O[C@@H]5CO[C@@H](C)O[C@H]5[C@H](O)[C@H]3O)[C@H]3COC(=O)[C@H]23)OCO4)cc(OC)c1O [Etoposide]; conditions: top dose 16 µM
Description: as §1

AZD7762 = compound: NC(=O)Nc1cc(-c2cccc(F)c2)sc1C(=O)N[C@H]1CCCNC1 [AZD7762]; conditions: top dose 2 µM
Description: as §1

XAV 939 = compound: Oc1nc(-c2ccc(C(F)(F)F)cc2)nc2c1CSCC2 [XAV 939]; conditions: top dose 5 µM; top dose inferred
Description: as §1

| Cell Line | AUC (BMS-345541) | IC50 (BMS-345541) | AUC (GSK-650394) | IC50 (GSK-650394) | AUC (NPK76-II-72-1) | IC50 (NPK76-II-72-1) | AUC (Bexarotene) | IC50 (Bexarotene) | AUC (Etoposide) | IC50 (Etoposide) | AUC (AZD7762) | IC50 (AZD7762) | AUC (XAV 939) | IC50 (XAV 939) |
| --- | --- | --- | --- | --- | --- | --- | --- | --- | --- | --- | --- | --- | --- | --- |
| KYSE-220 (oesophagus, adherent) | 0.895 | > 16 µM | 0.845 | 12.5 µM | 0.941 | > 10.2 µM | 0.98 | > 8 µM | 0.518 | 1120 nM | 0.679 | 407 nM | 0.976 | > 5 µM |
| KYSE-410 (oesophagus, adherent) | 0.917 | > 16 µM | 0.871 | > 16 µM | 0.961 | > 10.2 µM | 0.969 | > 8 µM | 0.786 | 7390 nM | 0.603 | 244 nM | 0.983 | > 5 µM |
| LB771-HNC (head and neck, adherent) | 0.799 | 10 µM | 0.93 | > 16 µM | 0.931 | > 10.2 µM | 0.717 | 2.43 µM | 0.885 | > 16000 nM | 0.723 | 641 nM | 0.968 | > 5 µM |
| LB831-BLC (bladder, adherent) | 0.959 | > 16 µM | 0.919 | > 16 µM | 0.944 | > 10.2 µM | 0.983 | > 8 µM | 0.756 | 5550 nM | 0.923 | > 2000 nM | 0.98 | > 5 µM |
| LC-1-sq (lung squamous cell carcinoma, adherent) | 0.897 | > 16 µM | 0.914 | > 16 µM | 0.934 | > 10.2 µM | 0.97 | > 8 µM | 0.944 | > 16000 nM | 0.491 | 117 nM | 0.983 | > 5 µM |
| LXF-289 (lung adenocarcinoma, adherent) | 0.906 | > 16 µM | 0.59 | 1.76 µM | 0.817 | 5.61 µM | 0.857 | 6.31 µM | 0.607 | 1950 nM | 0.721 | 521 nM | 0.787 | 2.14 µM |
| LoVo (large intestine, adherent) | 0.906 | > 16 µM | 0.745 | 5.08 µM | 0.936 | > 10.2 µM | 0.819 | 4.61 µM | 0.622 | 2180 nM | 0.585 | 214 nM | 0.972 | > 5 µM |
| MC-CAR (haematopoietic neoplasm, suspension) | 0.701 | 3.42 µM | 0.91 | > 16 µM | 0.495 | 0.623 µM | 0.915 | > 8 µM | 0.382 | 491 nM | 0.546 | 164 nM | 0.972 | > 5 µM |
| MDA-MB-415 (breast, adherent) | 0.978 | > 16 µM | 0.914 | > 16 µM | 0.974 | > 10.2 µM | 0.958 | > 8 µM | 0.944 | > 16000 nM | 0.92 | > 2000 nM | 0.959 | > 5 µM |
| MDST8 (large intestine, adherent) | 0.91 | > 16 µM | 0.978 | > 16 µM | 0.969 | > 10.2 µM | 0.988 | > 8 µM | 0.893 | > 16000 nM | 0.682 | 400 nM | 0.986 | > 5 µM |
| MIA-PaCa-2 (pancreas, adherent) | 0.953 | > 16 µM | 0.687 | 3.53 µM | 0.969 | > 10.2 µM | 0.755 | 2.96 µM | 0.637 | 2480 nM | 0.541 | 164 nM | 0.982 | > 5 µM |
| MSTO-211H (mesothelioma, adherent) | 0.972 | > 16 µM | 0.99 | > 16 µM | 0.978 | > 10.2 µM | 0.991 | > 8 µM | 0.991 | > 16000 nM | 0.656 | 324 nM | 0.931 | > 5 µM |
| NALM-6 (B-cell leukaemia, suspension) | 0.839 | 8.48 µM | 0.795 | 6.09 µM | 0.496 | 0.625 µM | 0.968 | > 8 µM | 0.246 | 217 nM | 0.609 | 236 nM | 0.988 | > 5 µM |
| NB14 (neuroblastoma, adherent) | 0.934 | > 16 µM | 0.948 | > 16 µM | 0.7 | 2.25 µM | 0.989 | > 8 µM | 0.594 | 1780 nM | 0.396 | 66 nM | 0.988 | > 5 µM |
| NCI-H28 (mesothelioma, adherent) | 0.947 | > 16 µM | 0.948 | > 16 µM | 0.977 | > 10.2 µM | 0.981 | > 8 µM | 0.885 | > 16000 nM | 0.652 | 379 nM | 0.956 | > 5 µM |
| NCI-H226 (lung squamous cell carcinoma, adherent) | 0.913 | > 16 µM | 0.885 | > 16 µM | 0.7 | 2.41 µM | 0.981 | > 8 µM | 0.776 | 6700 nM | 0.939 | > 2000 nM | 0.981 | > 5 µM |

| Cell Line | AUC (BMS-345541) | IC50 (BMS-345541) | AUC (GSK-650394) | IC50 (GSK-650394) | AUC (NPK76-II-72-1) | IC50 (NPK76-II-72-1) | AUC (Bexarotene) | IC50 (Bexarotene) | AUC (Etoposide) | IC50 (Etoposide) | AUC (AZD7762) | IC50 (AZD7762) | AUC (XAV 939) | IC50 (XAV 939) |
| --- | --- | --- | --- | --- | --- | --- | --- | --- | --- | --- | --- | --- | --- | --- |
| NCI-H292 (lung adenocarcinoma, adherent) | 0.886 | > 16 µM | 0.897 | > 16 µM | 0.787 | 5.52 µM | 0.966 | > 8 µM | 0.695 | 3990 nM | 0.781 | 1020 nM | 0.535 | 0.398 µM |
| NCI-H647 (non-small cell lung carcinoma, adherent) | 0.864 | 15.1 µM | 0.722 | 4.42 µM | 0.812 | 5.81 µM | 0.84 | 5.87 µM | 0.588 | 1770 nM | 0.593 | 227 nM | 0.744 | 1.63 µM |
| NCI-H1437 (lung adenocarcinoma, adherent) | 0.795 | 7.74 µM | 0.741 | 5.05 µM | 0.904 | > 10.2 µM | 0.932 | > 8 µM | 0.692 | 3550 nM | 0.733 | 594 nM | 0.973 | > 5 µM |
| NCI-H2087 (lung adenocarcinoma, semi-adherent) | 0.709 | 4.09 µM | 0.813 | 9.51 µM | 0.906 | > 10.2 µM | 0.879 | > 8 µM | 0.471 | 829 nM | 0.906 | > 2000 nM | 0.966 | > 5 µM |
| NCI-H3122 (lung adenocarcinoma, adherent) | 0.85 | 12.7 µM | 0.825 | 9.99 µM | 0.552 | 0.889 µM | 0.936 | > 8 µM | 0.448 | 717 nM | 0.654 | 340 nM | 0.777 | 2.07 µM |
| NCI-SNU-16 (stomach, suspension) | 0.911 | > 16 µM | 0.99 | > 16 µM | 0.935 | > 10.2 µM | 0.991 | > 8 µM | 0.991 | > 16000 nM | 0.665 | 339 nM | 0.983 | > 5 µM |
| OCUM-1 (stomach, adherent) | 0.981 | > 16 µM | 0.974 | > 16 µM | 0.986 | > 10.2 µM | 0.966 | > 8 µM | 0.92 | > 16000 nM | 0.452 | 91.2 nM | 0.985 | > 5 µM |
| OV-90 (ovary, adherent) | 0.853 | > 16 µM | 0.926 | > 16 µM | 0.895 | > 10.2 µM | 0.951 | > 8 µM | 0.549 | 1410 nM | 0.666 | 416 nM | 0.945 | > 5 µM |
| PFSK-1 (medulloblastoma, adherent) | 0.879 | > 16 µM | 0.902 | > 16 µM | 0.868 | > 10.2 µM | 0.986 | > 8 µM | 0.901 | > 16000 nM | 0.604 | 246 nM | 0.984 | > 5 µM |
| PL4 (pancreas, adherent) | 0.93 | > 16 µM | 0.967 | > 16 µM | 0.954 | > 10.2 µM | 0.986 | > 8 µM | 0.812 | 8940 nM | 0.722 | 548 nM | 0.898 | > 5 µM |
| RCC10RGB (kidney, adherent) | 0.894 | > 16 µM | 0.964 | > 16 µM | 0.961 | > 10.2 µM | 0.871 | > 8 µM | 0.911 | > 16000 nM | 0.927 | > 2000 nM | 0.931 | > 5 µM |
| RCM-1 (large intestine, adherent) | 0.887 | > 16 µM | 0.96 | > 16 µM | 0.984 | > 10.2 µM | 0.977 | > 8 µM | 0.816 | 11300 nM | 0.774 | 962 nM | 0.982 | > 5 µM |
| SAT (head and neck, adherent) | 0.87 | > 16 µM | 0.921 | > 16 µM | 0.908 | > 10.2 µM | 0.934 | > 8 µM | 0.961 | > 16000 nM | 0.708 | 676 nM | 0.688 | 1.42 µM |
| SF126 (glioma, adherent) | 0.897 | > 16 µM | 0.711 | 4.09 µM | 0.956 | > 10.2 µM | 0.935 | > 8 µM | 0.573 | 1600 nM | 0.631 | 293 nM | 0.98 | > 5 µM |
| SF268 (glioma, adherent) | 0.802 | 8.59 µM | 0.808 | 9.04 µM | 0.884 | > 10.2 µM | 0.939 | > 8 µM | 0.638 | 2490 nM | 0.591 | 226 nM | 0.976 | > 5 µM |
